Data from the supplement of paper PMC3334620.
The full ranking holds about 33,000 sequences; the median of “E-score (-0.5 to 0.5)” is about -0.04, and the highest 2% start at about 0.36. Some of the results follow.

target: T1, Hmlalpha2 (UniProt P0CY09); assay: PBM E-score (8-mer binding enrichment) (E-score (-0.5 to 0.5)); higher = stronger / more preferred TF binding; most listed sequences are background and not binding sites; conditions: protein concentration: 200 nM; construct: GST-full length
T1 sequence: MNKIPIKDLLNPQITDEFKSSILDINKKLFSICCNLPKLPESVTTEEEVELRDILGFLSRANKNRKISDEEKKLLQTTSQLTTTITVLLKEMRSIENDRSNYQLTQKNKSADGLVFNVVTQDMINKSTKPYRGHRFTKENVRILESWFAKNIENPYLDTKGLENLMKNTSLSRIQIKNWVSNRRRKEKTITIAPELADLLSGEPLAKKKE
Summary of the method: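 Bound GST-tagged yeast transcription factors, applied at about 100-200 nM to double-stranded universal all-10-mer Agilent arrays, were detected with fluorescent anti-GST. Scans were normalised with masliner. A modified Wilcoxon-Mann-Whitney statistic, the E-score, was assigned to each ungapped eight-base word pooled with its reverse complement by the Universal PBM Analysis Suite.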

| Sequence | PBM E-score |
| --- | --- |
| CACCATAG | -0.203 |
| CATAACAC | 0.397 |
| CCAACCTA | -0.139 |
| GGCCAAAA | -0.0125 |
| AGATGCGG | -0.145 |
| CGAATCCC | -0.0202 |
| ACACTACT | 0.105 |
| AAATTCAA | 0.0676 |
| CATCCTAA | -0.0863 |
| TGACTTAA | 0.0506 |
| ACACAAGC | 0.331 |
| CTTTGTAC | 0.2 |
| ATACCCAT | 0.106 |
| GGTCTTAA | -0.101 |
| ACTGCCAG | -0.137 |
| AACACGTG | 0.348 |
| CTAGGCCA | -0.33 |
| TCTTGAAA | 0.103 |
| CATGACAA | 0.166 |
| GAGAATAC | 0.242 |
| AAGCCGCG | 0.0123 |
| CCCCGTCC | -0.382 |
| CCGCATGA | -0.0972 |
| CCTCTAGC | -0.184 |
| ACGCCATA | -0.0309 |

| Sequence | PBM E-score |
| --- | --- |
| CAGCCAGG | -0.111 |
| ATAGTATC | 0.147 |
| AATGGACC | 0.0737 |
| ACCTGATG | -0.103 |
| AGCAAGTA | 0.227 |
| ACAGAATG | -0.013 |
| ACATTTGC | 0.123 |
| AAAACGCA | 0.171 |
| ACAACCCG | 0.126 |
| GGCCGCTA | -0.245 |
| AATTCGGG | -0.159 |
| AAAGCCAG | -0.0722 |
| GGTCTTGA | -0.124 |
| CTGCTATC | -0.154 |
| CTGAGGAA | -0.219 |
| AGGGTTAA | -0.00153 |
| CTTTCGGA | -0.329 |
| GAGCATTA | 0.064 |
| AGGAACGC | -0.188 |
| GCCTGAGC | -0.327 |
| ACGTGCAC | 0.0641 |
| ACTACGGG | -0.182 |
| GTGGCAAA | -0.174 |
| ATGGGGGG | -0.176 |
| CTCTCTAA | -0.209 |

| Sequence | PBM E-score |
| --- | --- |
| CTGAGCCC | -0.22 |
| ATCTCCTA | -0.148 |
| CAATAGAA | -0.133 |
| AGGTCTCC | -0.285 |
| ACTACACC | 0.166 |
| ACCCGATC | -0.0242 |
| CACCTAGG | -0.14 |
| AAGTGCAG | -0.155 |
| ACAACTGT | 0.137 |
| CTAGCATC | -0.0105 |
| AAGAGCTC | -0.0309 |
| CGGGACGC | -0.184 |
| AGTCAATC | -0.0505 |
| AAGAGGGT | -0.0959 |
| ACTGCGAG | -0.206 |
| AGTGCCTA | -0.0106 |
| AATTTGGG | 0.00361 |
| ATCCCAAT | 0.00934 |
| AACTCGAC | 0.13 |
| AGAGCGCA | -0.342 |
| ATGTATAG | 0.362 |
| AGTTCGTC | 0.117 |
| CTGCGTCA | -0.0049 |
| CACCGGCA | -0.19 |
| CGCGTCCC | -0.0711 |

| Sequence | PBM E-score |
| --- | --- |
| ATTGCCTA | 0.0496 |
| ACTGGGCT | -0.117 |
| GTTAAGGA | 0.175 |
| AGTAATTG | 0.215 |
| AGACTGAC | -0.085 |
| CTTGCCTA | -0.112 |
| GCACGCGC | 0.0403 |
| ACGAGATC | -0.0412 |
| AGGCTTCG | -0.16 |
| ACGCTCCG | -0.208 |
| GATCTTAA | -0.00066 |
| CTTCAAGA | 0.141 |
| GACACGTC | 0.2 |
| AGCGAGCG | 0.0472 |
| GATATTAA | 0.0587 |
| GATCTTAC | 0.108 |
| GCTGAAGC | -0.14 |
| CTCTCTTC | -0.318 |
| AAGCTCAA | 0.145 |
| AACTTTAG | 0.19 |
| CGAGGCGA | -0.229 |
| AGCCCTCC | -0.312 |
| AATACACG | 0.473 |
| AGTTACGA | 0.173 |
| CGACATGC | 0.311 |

| Sequence | PBM E-score |
| --- | --- |
| AGGCGGAC | -0.27 |
| ACATAGAG | 0.237 |
| ACGTCTGA | 0.0238 |
| CAGGAAGA | -0.0764 |
| CTGACACC | -0.192 |
| ACAATGCT | 0.154 |
| ACGGACCA | 0.118 |
| CTCCTATA | -0.164 |
| CCACAATC | -0.238 |
| ATCATATA | 0.154 |
| CGTGCCTC | -0.119 |
| AGTCCGGC | -0.0446 |
| GAACTGAA | 0.00892 |
| TAAGGACA | 0.114 |
| GCACTTAC | 0.0534 |
| AGCCGAAA | -0.128 |
| CTCCCGTA | -0.272 |
| GGCTTGCA | 0.133 |
| CGCTGACA | 0.0535 |
| AATTTACC | 0.12 |
| GTGCTAAC | 0.0449 |
| TGGATTAA | -0.0387 |
| GGTAGAAC | -0.0525 |
| ACATTGGT | 0.0705 |
| GCCCCCAA | -0.222 |

| Sequence | PBM E-score |
| --- | --- |
| ACTATAAG | 0.0547 |
| GAGGTGGC | -0.276 |
| AAGATGAT | 0.11 |
| AATGACTA | -0.0193 |
| CGACCGCA | -0.186 |
| ATGTGGGG | -0.234 |
| AGCTGTAG | -0.0733 |
| ACGTGACT | 0.00927 |
| TGGTTCAA | -0.0554 |
| CCTCGCTC | -0.0593 |
| CCTAGCAA | -0.0638 |
| GACACGAC | 0.394 |
| CAAAGAGG | -0.144 |
| GATTCATA | -0.0484 |
| AATCGACT | 0.0207 |
| CAATAGCC | 0.0346 |
| CTAGGAGC | -0.218 |
| CTCGAATA | -0.165 |
| GAGTTGCA | -0.0333 |
| AAAGAATT | 0.0942 |
| ATGCACCG | -0.12 |
| CCGCACAA | -0.255 |
| CTAAGGCA | -0.116 |
| ACACGCGC | 0.304 |
| CGTCCCAC | 0.0414 |

| Sequence | PBM E-score |
| --- | --- |
| AATCGTAG | 0.0806 |
| AAGGTAGA | 0.0007 |
| AGATTTAA | 0.182 |
| GTTGACAA | 0.25 |
| CTGCCCAA | -0.138 |
| CACAGGTG | -0.0488 |
| AACTACCC | -0.129 |
| ATACGTGC | 0.263 |
| TACAAGAA | 0.337 |
| GTAAGCAC | 0.119 |
| CCGGGCTA | -0.21 |
| CTAGTCAC | -0.123 |
| CCTGCAAA | -0.25 |
| CAGTGACC | -0.302 |
| GCTACTGA | -0.0621 |
| GAAAGAAA | 0.0793 |
| ACTCCCGA | -0.117 |
| AACGGTAA | 0.0273 |
| GTAGGGTA | 0.0755 |
| AGCTATCA | -0.0383 |
| GTCCAGAC | -0.23 |
| AGTCTACG | -0.0918 |
| CAGGGTAG | -0.236 |
| GGTCCACC | -0.27 |
| AGCAACAC | 0.26 |

| Sequence | PBM E-score |
| --- | --- |
| AGCAAAAC | 0.0847 |
| AATGATGC | 0.0435 |
| AATCAGTG | -0.113 |
| AGTTTGGG | -0.147 |
| AGCGGATC | -0.136 |
| AACGTGAC | 0.0593 |
| CGGATTGA | -0.0984 |
| ATTGACGG | -0.0674 |
| CGGTAGAA | -0.175 |
| CCGTTAAG | -0.0932 |
| TGCAATAA | 0.156 |
| GATCAGCC | -0.265 |
| CATGTCCC | 0.0423 |
| CGCATCTA | 0.0697 |
| AAATTATG | 0.0141 |
| ACCCGCTA | 0.0482 |
| ATTCTGTA | 0.114 |
| AGAAGTAA | 0.113 |
| CGACACCC | -0.168 |
| CTGCCATC | -0.239 |
| AAGTGGTC | -0.174 |
| GAGGTACC | -0.293 |
| ACCTGGGA | 0.0291 |
| CAGTTTAA | 0.208 |
| AATGCAAC | 0.08 |

| Sequence | PBM E-score |
| --- | --- |
| CTTTTGGC | -0.169 |
| TAATTCGA | 0.121 |
| ATACTTAA | 0.264 |
| ATTTCAGC | -0.11 |
| CTGACATC | -0.0813 |
| CCGCAGTA | -0.0882 |
| GTAAGCAA | 0.0319 |
| ACATTAGT | 0.196 |
| AATACTTA | 0.174 |
| TACGAGGA | -0.0647 |
| AGAGGTCG | -0.0701 |
| AGCTTTTC | 0.0531 |
| CTCGAGTA | 0.13 |
| AGGTTACG | -0.0602 |
| CTTGTAAC | 0.36 |
| GGCGCGCA | -0.149 |
| ATGCTTTA | 0.169 |
| TCCTGCGA | -0.123 |
| CGGAGGTA | -0.16 |
